# Measured values from PMC8927159.
# By UniProt entry, the sequences of proteins in these tests, tags left out.
# UniProt O75494: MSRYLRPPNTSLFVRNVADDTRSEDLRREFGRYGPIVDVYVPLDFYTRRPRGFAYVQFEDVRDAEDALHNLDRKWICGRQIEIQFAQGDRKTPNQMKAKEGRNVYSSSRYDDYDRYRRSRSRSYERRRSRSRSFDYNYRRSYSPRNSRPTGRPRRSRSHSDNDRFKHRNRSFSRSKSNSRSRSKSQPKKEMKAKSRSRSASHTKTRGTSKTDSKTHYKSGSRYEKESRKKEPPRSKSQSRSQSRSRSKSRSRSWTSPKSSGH
# UniProt P61326: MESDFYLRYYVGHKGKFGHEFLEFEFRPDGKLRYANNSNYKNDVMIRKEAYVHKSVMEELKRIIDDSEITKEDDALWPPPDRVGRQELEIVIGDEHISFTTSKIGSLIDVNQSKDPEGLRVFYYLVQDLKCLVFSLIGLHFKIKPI
# UniProt Q96A72: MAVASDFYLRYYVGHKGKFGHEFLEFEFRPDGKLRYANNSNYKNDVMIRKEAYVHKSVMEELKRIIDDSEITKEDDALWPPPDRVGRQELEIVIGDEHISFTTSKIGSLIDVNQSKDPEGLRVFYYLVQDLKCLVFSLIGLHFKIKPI
# UniProt Q15717: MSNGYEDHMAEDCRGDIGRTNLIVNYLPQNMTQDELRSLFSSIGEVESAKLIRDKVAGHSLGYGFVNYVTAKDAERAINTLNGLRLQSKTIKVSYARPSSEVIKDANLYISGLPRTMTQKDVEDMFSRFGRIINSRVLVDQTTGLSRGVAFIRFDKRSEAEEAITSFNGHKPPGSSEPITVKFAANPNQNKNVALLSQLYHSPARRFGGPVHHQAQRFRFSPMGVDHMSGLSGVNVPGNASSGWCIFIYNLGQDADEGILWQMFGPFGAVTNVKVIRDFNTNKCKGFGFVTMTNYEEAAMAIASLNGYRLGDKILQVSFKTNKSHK
# UniProt Q9BY49: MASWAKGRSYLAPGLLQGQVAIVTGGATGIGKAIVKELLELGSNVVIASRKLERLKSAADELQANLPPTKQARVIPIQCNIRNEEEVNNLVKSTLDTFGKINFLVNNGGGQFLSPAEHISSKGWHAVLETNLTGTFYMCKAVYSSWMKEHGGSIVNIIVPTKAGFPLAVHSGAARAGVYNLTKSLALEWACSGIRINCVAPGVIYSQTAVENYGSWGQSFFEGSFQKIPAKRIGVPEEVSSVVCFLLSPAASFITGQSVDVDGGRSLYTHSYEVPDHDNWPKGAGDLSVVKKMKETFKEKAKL
# UniProt P11940: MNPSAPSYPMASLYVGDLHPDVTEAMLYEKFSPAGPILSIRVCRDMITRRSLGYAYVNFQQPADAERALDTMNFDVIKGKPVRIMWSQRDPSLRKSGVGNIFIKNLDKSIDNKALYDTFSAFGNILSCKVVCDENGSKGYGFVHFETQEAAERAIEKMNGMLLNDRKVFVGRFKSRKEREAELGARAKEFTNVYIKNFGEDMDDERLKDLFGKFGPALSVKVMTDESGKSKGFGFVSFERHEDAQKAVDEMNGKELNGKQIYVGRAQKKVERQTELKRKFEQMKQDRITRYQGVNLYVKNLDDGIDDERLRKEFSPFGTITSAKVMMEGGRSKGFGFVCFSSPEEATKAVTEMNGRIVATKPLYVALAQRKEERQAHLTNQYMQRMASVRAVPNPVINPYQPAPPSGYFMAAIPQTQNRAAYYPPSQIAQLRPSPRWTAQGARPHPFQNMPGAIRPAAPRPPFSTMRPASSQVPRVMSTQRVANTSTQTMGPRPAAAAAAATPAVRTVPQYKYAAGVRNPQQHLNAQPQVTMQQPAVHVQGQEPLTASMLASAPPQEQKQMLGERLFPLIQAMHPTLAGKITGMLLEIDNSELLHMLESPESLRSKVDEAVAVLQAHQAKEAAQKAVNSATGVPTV
# These are yes or no findings as the source states them, for the method shown. Binding seen in cells or lysates may run through a third protein. Some binding calls cover weakened binding; strength is not graded here.
# Biological target: Serine/arginine-rich splicing factor 10 (SRSF10) (human (endogenous in Hep3B and HCCLM3)) (UniProt O75494)
# Test: co-IP; independent endogenous SRSF10 immunoprecipitation from Hep3B and HCCLM3 cells on Protein G Dynabeads; IP buffer 20 mM Tris pH 8, 10% glycerol, 150 mM NaCl, 0.1% NP-40, 0.1 mM EDTA; western blot
row,Substance,binding
1,MAGOH (from UniProt P61326 1-146),binds
2,MAGOHB (from UniProt Q96A72 1-148),binds
3,ELAVL1 (from UniProt Q15717 1-326),binds

# Second part, the substance after the results:
row,binding,Substance
1,no binding,PECR (from UniProt Q9BY49 1-303)
2,binds,PABPC1 (from UniProt P11940 1-636)
